# Data reported in the RNAGym collection of RNA variant scans (doi:10.1073/pnas.2313332121).
# Variants at the floor of the assay are shown more often than the library holds them.
# B1: TPR 5TU (parent)
# chain: GGAUCUUCUCGAUCUAACAAAAAAGACAAAUCUGCCACAAAGCUUGAGAGCAUCUUCGGAUGCAGAGGCGGCAGCCUUCGGUGGCGCGAUAGCGCCAACGUUCUCAACUAUGACACGCAAAACGCGUGCUCCGUUGAAUGGAGUUUAUCAUG
# Variants of: B1
# Experiment: polymerase ribozyme fitness, log enrichment relative to wild type (log ratio); higher = more active; in vitro selection for triplet polymerase activity
# Summary of the method: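 PCR was used to build mutant libraries for each subunit of a heterodimeric triplet polymerase ribozyme, which were then transcribed. A single in vitro selection round, in triplicate, used a frozen incubation at −7 °C and recovered extended constructs by gel excision, streptavidin beads and RT-PCR. Fitness is the logarithm of genotype enrichment relative to wild-type enrichment, averaged over replicates with inverse-variance weights. The logarithm is base 2, and after Illumina sequencing only genotypes with ≥10 input reads and ≥1 read per output were kept.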
row,Variant,polymerase ribozyme fitness (log ratio)
1,A23U G50U C99G U104G,≤ -4.2
2,A23U G59C C79A C93U,≤ -4.2
3,A23U G62C G71A C76U,≤ -4.2
4,A23U G62C G84U C85G C132G,≤ -4.2
5,A23U G70A G100U C116U U135A,≤ -4.2
6,A23U G71A C79U G94C C108U U109G A115C G143C,≤ -4.2
7,A23U G83A,≤ -4.2
8,A23U G84A U90G G126U G133A,≤ -4.2
9,A23U G86A,≤ -4.2
10,A23U G86A C99G A137U,≤ -4.2
11,A23U G88C A98U A150C,≤ -4.2
12,A23U G88U A106U A138U,≤ -4.2
13,A23U G88U C95U C149A,≤ -4.2
14,A23U G92U A115G C149G,≤ -4.2
15,A23U G94A C105A G133U,≤ -4.2
16,A23U U31A U53A G84U G86U C87G C114U G140A,≤ -4.2
17,A23U U31C C87G U104G,≤ -4.2
18,A23U U31G U45A U78A G83C C95A,≤ -4.2
19,A23U U44G G94C,≤ -4.2
20,A23U U53A,≤ -4.2
21,A23U U53G,≤ -4.2
22,A23U U53G C93A,≤ -4.2
23,A23U U55A G58A C85U,≤ -4.2
24,A23U U55G C87U U145G,≤ -4.2

row,Variant,polymerase ribozyme fitness (log ratio)
1,A23U U56A A73U G86A C93G C131G U139C,≤ -4.2
2,A23U U56A A91G,≤ -4.2
3,A23U U56A G80A,≤ -4.2
4,A23U U61A A107U A115G,≤ -4.2
5,A23U U77G C79U C93U A121G G124A C125U,≤ -4.2
6,A23U U78A C93A,≤ -4.2
7,A24C A26G A30U C38U U56A A66G G80U C105A G152U,≤ -4.2
8,A24C A26U U31A G68U C87A A89G A98G C132G,≤ -4.2
9,A24C A28C A41G G42A C93A,≤ -4.2
10,A24C A28G C43A G58U A73U G86U U148A,≤ -4.2
11,A24C A28U A41C U78G A122G U127A,≤ -4.2
12,A24C A28U C36A G50U G143A,≤ -4.2
13,A24C A28U U31A C93U C99G A138C,≤ -4.2
14,A24C A28U U33A U44A C54A U55A G86U G88U,≤ -4.2
15,A24C A29U U55G G86A A106G G136C,≤ -4.2
16,A24C A30C U127G,≤ -4.2
17,A24C A30G G71A C85U C123U U135G,≤ -4.2
18,A24C A30U A138U U144G,≤ -4.2
19,A24C A30U G68U C76A C87A C116G,≤ -4.2
20,A24C A37C C38U U56A C57U C63A C69U C96A U127G U144C,≤ -4.2
21,A24C A39C G68C,≤ -4.2
22,A24C A40C C87A C99A C116A G140U,≤ -4.2
23,A24C A41C U55G,≤ -4.2
24,A24C A41C U56A G86A G88C U90G C125U,≤ -4.2

row,Variant,polymerase ribozyme fitness (log ratio)
1,A24C A47C A49C A64C C95A U102G C131A A150C,≤ -4.2
2,A24C A47C U53A A66U G80A C93U,≤ -4.2
3,A24C A47G A49U G83U C129U,≤ -4.2
4,A24C A47G C79U G94C C125U,≤ -4.2
5,A24C A49U C85G G88A C95A U104A U146A,≤ -4.2
6,A24C A49U C96A,≤ -4.2
7,A24C A52C C76U U77A U78C C85G,≤ -4.2
8,A24C A52G U78A G92A C129G G141A,≤ -4.2
9,A24C A52U G80A A122C,≤ -4.2
10,A24C A73C G86U C96A,≤ -4.2
11,A24C A73G C79G G81A U82G U102G U148C G152U,≤ -4.2
12,A24C A73G G83C G143U,≤ -4.2
13,A24C A91C C95U,≤ -4.2
14,A24C A91G,≤ -4.2
15,A24C C27A C87G C108G C114U U148C,≤ -4.2
16,A24C C27A U55G,≤ -4.2
17,A24C C27A U56A G58A C72U A73U C87U,≤ -4.2
18,A24C C27G A29U C57U G86C C103A,≤ -4.2
19,A24C C27G A30G U31A G50C C57U A64G G68A C76G C96G,≤ -4.2
20,A24C C27G U44G C54U A91G C95U G112A A115U C118A G128C,≤ -4.2
21,A24C C32U A40U U44A U77A G94C A115C G124U G136C U151C,≤ -4.2
22,A24C C35A C93A,≤ -4.2
23,A24C C35G G42U C43U C87A C131U,≤ -4.2
24,A24C C35U C95A,≤ -4.2

row,Variant,polymerase ribozyme fitness (log ratio)
1,A24C C35U U45A G83U G128U G141A,≤ -4.2
2,A24C C35U U53G,≤ -4.2
3,A24C C36A C54A G81U A89C A91C C118U C125A,≤ -4.2
4,A24C C38G A49U G59C U61A G128U,≤ -4.2
5,A24C C38U G42C,≤ -4.2
6,A24C C38U G92A G126U C131A,≤ -4.2
7,A24C C43G C54U A73G,≤ -4.2
8,A24C C43U C93G G141U,≤ -4.2
9,A24C C51U G86A,≤ -4.2
10,A24C C54A,≤ -4.2
11,A24C C54A A60G A73U U77G,≤ -4.2
12,A24C C54U G74A G88U U109G,≤ -4.2
13,A24C C54U G84A C132G,≤ -4.2
14,A24C C57U C75U C96A G143C,≤ -4.2
15,A24C C63U G71A C105G G143C U151G,≤ -4.2
16,A24C C75A A106U C132G U139C A142U,≤ -4.2
17,A24C C75U A113U G124U U144C,≤ -4.2
18,A24C C76U A91U,≤ -4.2
19,A24C C85U,-3.65
20,A24C C87A A113G C118G G133C A137G G152A,≤ -4.2
21,A24C C87G A120U,≤ -4.2
22,A24C C87U A89U U134A,≤ -4.2
23,A24C C95A C96G U144C,≤ -4.2
24,A24C C99U,≤ -4.2

row,Variant,polymerase ribozyme fitness (log ratio)
1,A24C C118U G143C,≤ -4.2
2,A24C C131G C132A U139C,≤ -4.2
3,A24C G34A A60G C85G C103A A120U,≤ -4.2
4,A24C G34A C96G G117C U135G U139A U145A,≤ -4.2
5,A24C G34A G42U U61A A91G U151A,≤ -4.2
6,A24C G42U A47C C79A U90A A97C U148A,≤ -4.2
7,A24C G46A C116G,-4.14
8,A24C G48A,≤ -4.2
9,A24C G48A G67A G70A G88C C103G G133U,≤ -4.2
10,A24C G48U,≤ -4.2
11,A24C G50A A52C G74U C85U G117U,≤ -4.2
12,A24C G50C C93U,≤ -4.2
13,A24C G62C G86U U102C,≤ -4.2
14,A24C G68A C95A G100A,≤ -4.2
15,A24C G71A A107C G126A,≤ -4.2
16,A24C G83C A106C G112A,≤ -4.2
17,A24C G83U C105A,≤ -4.2
18,A24C G84U,≤ -4.2
19,A24C U31G A37G C51U A52U U56G C76U C93A G141A,≤ -4.2
20,A24C U33A C35G U53A G92C,≤ -4.2
21,A24C U33A G62C U82G C123U A138G,≤ -4.2
22,A24C U45A G84U C85A A107U U144C,≤ -4.2
23,A24C U53A A73G C85U G141A,≤ -4.2
24,A24C U53A C105G,≤ -4.2

row,Variant,polymerase ribozyme fitness (log ratio)
1,A24C U53A G81C C95U G141A,≤ -4.2
2,A24C U53C A73U G80U G86U C103G C114U U130C C131G,≤ -4.2
3,A24C U55A U56A C79A U148A,≤ -4.2
4,A24C U56A C79G G86U A119G C129G,≤ -4.2
5,A24C U56G G59C A91U U144C G152U,≤ -4.2
6,A24G A26G A60C C85U G88U C93G C105A U145A U151C,≤ -4.2
7,A24G A26U G58C G84U A113U,≤ -4.2
8,A24G A26U G141C,≤ -4.2
9,A24G A26U U56A C87G C123A C132G G133U,≤ -4.2
10,A24G A28C U82A,≤ -4.2
11,A24G A28U A52C C79G G83A C114A,≤ -4.2
12,A24G A28U C38A A52G U56A A64U,≤ -4.2
13,A24G A28U U78G G92U G152U,≤ -4.2
14,A24G A29G U31G U55G U56A G92A C103U U111A,≤ -4.2
15,A24G A29U C54U G83A A98G,≤ -4.2
16,A24G A29U C76G C93G C96G G126A G143U,≤ -4.2
17,A24G A37C A40C G50C U56A C79U U135G,≤ -4.2
18,A24G A37U A115G U130C U135A A150U,≤ -4.2
19,A24G A39G G67C C93G C116G U139C U151C,≤ -4.2
20,A24G A39G G92A U104C G112A C114U A115U A122U G124C,≤ -4.2
21,A24G A39U U55A A66G,≤ -4.2
22,A24G A41C C75A C116A,≤ -4.2
23,A24G A41G U55A C63U C69A U82A G84A,≤ -4.2
24,A24G A47G G48A C75U G86A,≤ -4.2

row,Variant,polymerase ribozyme fitness (log ratio)
1,A24G A49C A91U G94U C96U A120G G133C,≤ -4.2
2,A24G A49G C105U G117U,≤ -4.2
3,A24G A52U C85A G140A A142G,≤ -4.2
4,A24G A60U G62U A73U C95A A97G C99G A106U G126C,≤ -4.2
5,A24G A64C G67A G84U U109G A150U,≤ -4.2
6,A24G A91U,≤ -4.2
7,A24G A97G,≤ -4.2
8,A24G A97U G140U,≤ -4.2
9,A24G C27A A39G,≤ -4.2
10,A24G C27A C35U A40U C93U G128C G141A,≤ -4.2
11,A24G C32A C38A U45A C57U A106U C118U,≤ -4.2
12,A24G C35A G50A A110U C149A,≤ -4.2
13,A24G C36U G58C G68C U146C A147C,≤ -4.2
14,A24G C38A A52G C85A,≤ -4.2
15,A24G C38A G58A G92C A120C U148G,≤ -4.2
16,A24G C38U A97C C131G,≤ -4.2
17,A24G C43G G59C G86A C87A A106G G136U,≤ -4.2
18,A24G C43G G100U U144G,≤ -4.2
19,A24G C43U C93U G141C,≤ -4.2
20,A24G C54A,-3.54
21,A24G C54U C95U A97C A119U C125U,≤ -4.2
22,A24G C57G C75U G92U C118A,≤ -4.2
23,A24G C57G G59U A73U C96U C105G C108G,≤ -4.2
